# In the supplement of paper PMC5499739:
# Over roughly 16,000 sequences, “Z-score” has its median near -0.37; the highest 2% begin near 3.1. This is one part of the list.
# Test system: RBM10 RRM1-ZnF-RRM2 (GST-tagged construct)
# Assay: RNAcompete 7-mer binding Z-score; higher = stronger binding preference
# In short: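 Bound RNA was identified by microarray hybridisation after GST-tagged RBM10 constructs (20 pmol) had been mixed with 1.5 nmol of a designed pool of 241 399 RNAs up to 41 nt, transcribed from microarray-derived DNA templates. Binding ran for 30 min at 4°C in 1 ml Hepes pH 7.8 buffer with KCl, NaCl, glycerol, DTT, BSA and glutathione Sepharose beads, with four 2-min washes at 4°C afterwards. For every heptamer motif, a one-sided Z-score for enrichment was computed across the probes that contained it.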
row,Sequence,RNAcompete 7-mer binding Z-score
1,CUUCAUC,-0.905
2,ACUCGUU,-0.846
3,UCCCUCU,-0.748
4,CAUAAAG,-0.362
5,AUCAGUA,0.228
6,CGGGAGC,1.42
7,UUAGCGG,0.294
8,GUCGGUC,-0.162
9,ACGGGCG,1.52
10,CUACAAC,-0.562
11,GCGCCUU,-0.836
12,UCUUCAU,-0.81
13,GGCCAGA,0.177
14,GGCCGGG,1.32
15,UCCUACC,-0.69
16,UUCUGUU,-0.781
17,UGGGCCU,0.13
18,AAAAGCU,-0.533
19,AUCGAGA,0.352
20,UAGGUAU,0.894
21,UAUGCCA,-0.646
22,AUUCAUA,-0.522
23,UGGUCCC,-0.242

row,Sequence,RNAcompete 7-mer binding Z-score
1,AAAGCCC,-0.803
2,UUAAUCA,-0.417
3,ACUAAUG,-0.333
4,UCGGAAG,0.472
5,AUGCCCG,-0.646
6,CUGAUUG,-0.471
7,UUUCCAA,-0.675
8,GGUUGGG,4.42
9,CCCGAGG,0.192
10,GGUGACC,0.567
11,CUUCGUC,-0.712
12,UAUCCUG,-0.887
13,ACCAGUU,-0.723
14,AAAGAAA,0.108
15,GUACUUA,-0.267
16,GCAAUUG,0.363
17,AAAUUCA,-0.435
18,UGAACGA,0.337
19,AUAAUUG,-0.326
20,UUGGUCG,0.0859
21,GCCCAGA,-0.577
22,GAUGCAC,-0.22
23,CUAUUAU,-0.785

row,Sequence,RNAcompete 7-mer binding Z-score
1,GCUAUAC,-0.562
2,GAUCGUU,-0.464
3,ACGUUGG,0.548
4,GUAUGCG,0.687
5,GGGGUCC,1.28
6,UGUCGUU,-0.577
7,CUGGCCU,-0.89
8,GCGAGGU,1.82
9,UGAAGUU,-0.0816
10,GAGGUCC,0.0896
11,AAACCUU,-0.857
12,UGAUCCA,-0.515
13,AGGUGCG,1.87
14,UUGUUAA,-0.65
15,GGUCCCU,-0.519
16,AGGAAUC,0.0422
17,UAGCUAU,-0.672
18,CAAGCGA,0.151
19,GCUAACU,-0.384
20,AGCCAUC,-0.777
21,CAGCGCC,-0.358
22,CUAAUGA,-0.613
23,GUCUUGC,-0.861

row,Sequence,RNAcompete 7-mer binding Z-score
1,UAUACCA,-0.479
2,AUUAUUG,-0.344
3,ACUUGCG,-0.734
4,CCGUUCA,-0.683
5,UGGGCCC,0.253
6,UUGUCAA,-0.741
7,CUCCGCU,-0.734
8,CGUCCCG,-0.595
9,UUUAUGU,-0.541
10,GAUAGAC,0.213
11,CAUACCG,-0.551
12,UUUGCGU,-0.628
13,AGCAAAG,0.771
14,AUCUGAA,-0.643
15,GCUUGAC,-0.621
16,CUCAUGA,-0.701
17,GGCGGGU,2.57
18,ACUGCAU,-0.683
19,UUGCUCC,-0.843
20,AGCUUUA,-0.657
21,CCUAAUG,-0.752
22,ACUUUUG,-0.887
23,UAAGGAA,1.66

row,Sequence,RNAcompete 7-mer binding Z-score
1,CUUGACA,-0.774
2,CCUAUCG,-0.817
3,AGUCCGA,-0.53
4,CCAGCAA,-0.723
5,GCAUUCG,-0.493
6,UCUGGUC,-0.522
7,GGCCAUC,-0.639
8,AUUUACA,-0.606
9,AUUGUUU,-0.595
10,CCUCUAC,-0.919
11,GGACAUU,0.403
12,UGACGCC,-0.701
13,UUACUGC,-0.799
14,AAAAGCC,-0.551
15,CGUUCGG,-0.42
16,CAACAAU,-0.428
17,CAGGUUU,0.29
18,AGGGCGA,2.91
19,AGCUGUC,-0.795
20,GGAAGAC,1.89
21,CUAUCUC,-0.828
22,GGGUUAG,4.04
23,UGAAUCC,-0.566

row,Sequence,RNAcompete 7-mer binding Z-score
1,GCUCUAU,-0.632
2,CGCUUAG,-0.65
3,CGUACGU,-0.107
4,GCCAUGG,0.366
5,GGGGCGC,1.91
6,GGAGGUA,3.82
7,ACCUCAA,-0.788
8,UACUCGC,-0.548
9,AGAAGCU,-0.508
10,AUGUACA,0.0532
11,CCCAGCU,-0.657
12,GUGAAGG,3.69
13,UCCACCU,-0.857
14,UAUCUUU,-0.777
15,UAAGCGA,-0.238
16,AGUAAAU,-0.129
17,UAGGGCU,1.3
18,GUUGACC,-0.238
19,AAAUUGA,-0.00512
20,CGUUUCA,-0.81
21,GCAUUUU,-0.956
22,ACACCAG,-0.406
23,CAAUUCA,-0.624

row,Sequence,RNAcompete 7-mer binding Z-score
1,CCUCCCC,-0.694
2,AUGGCCU,-0.409
3,CCGGCUA,-0.632
4,UAGAAGA,0.348
5,CCAGUGC,-0.267
6,CAGCGCA,-0.231
7,UAGGGGU,3.84
8,CCGCAGA,-0.522
9,AGCCUGG,-0.46
10,GUACACA,-0.0452
11,GGCAGCC,-0.067
12,AUACAGU,0.243
13,UAAGGCG,1.64
14,UGCGCCU,-0.806
15,AGCGAAA,0.253
16,GGCCUUC,-0.734
17,GUGCUGA,0.294
18,GGUUCUC,-0.388
19,AACCAGG,1.17
20,ACGUGAU,-0.0998
21,UGCACGU,-0.384
22,GGUGAUU,0.949
23,GGCCUCA,-0.737

row,Sequence,RNAcompete 7-mer binding Z-score
1,AUCAGGC,0.37
2,UGCAGCA,-0.369
3,ACGGCCU,-0.617
4,UUGGGGA,2.27
5,AGGGUCC,0.654
6,AACAAAG,0.355
7,UCCGCGC,-0.657
8,ACGCACC,-0.694
9,UUCAGGG,0.993
10,CCAUACA,-0.61
11,AACGAGA,0.101
12,AAUGUGA,0.822
13,ACUUGUC,-0.989
14,AUGUUUA,-0.46
15,ACAAGCA,-0.122
16,GACGGCC,-0.34
17,AUUCAAA,-0.482
18,UUUUAAU,-0.551
19,GUCGUCC,-0.377
20,AUAUCCU,-0.639
21,UCUCUAG,-0.694
22,UGUCGCC,-0.737
23,UGGAGCC,0.261
